Results taken from the supplement of paper PMC3334620.
In all, about 33,000 sequences were measured (“E-score (-0.5 to 0.5)”: median about -0.035, highest 2% from about 0.34 on). The list shows a part of the results.

These sequences were tested against T1, Mot3 (UniProt P54785) (assay: PBM E-score (8-mer binding enrichment) (E-score (-0.5 to 0.5)); higher = stronger / more preferred TF binding; most listed sequences are background and not binding sites). Conditions: protein concentration: 200 nM; construct: GST-full length.
T1 sequence: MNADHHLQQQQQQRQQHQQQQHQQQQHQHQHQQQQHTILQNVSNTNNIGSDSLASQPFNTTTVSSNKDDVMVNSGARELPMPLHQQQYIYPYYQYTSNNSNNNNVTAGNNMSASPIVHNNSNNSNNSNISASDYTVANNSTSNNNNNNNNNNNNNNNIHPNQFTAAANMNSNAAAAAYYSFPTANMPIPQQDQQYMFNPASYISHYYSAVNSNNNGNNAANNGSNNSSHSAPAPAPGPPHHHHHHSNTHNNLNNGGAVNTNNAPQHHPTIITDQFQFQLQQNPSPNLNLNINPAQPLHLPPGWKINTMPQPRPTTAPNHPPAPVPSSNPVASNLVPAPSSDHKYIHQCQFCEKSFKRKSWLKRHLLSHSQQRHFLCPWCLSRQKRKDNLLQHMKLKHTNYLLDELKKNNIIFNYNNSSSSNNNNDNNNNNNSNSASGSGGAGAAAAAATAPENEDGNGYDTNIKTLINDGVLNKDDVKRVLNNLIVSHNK
How it was run: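 Detection of bound protein used fluorescent anti-GST, with scans normalised by masliner. The proteins were GST-tagged yeast transcription factors applied at about 100-200 nM to universal all-10-mer Agilent arrays made double-stranded by primer extension. Each ungapped eight-base word, pooled with its reverse complement, was scored with an E-score from the Universal PBM Analysis Suite.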

Sequence | PBM E-score
CTCCGGGA | -0.289
AGATGCGA | -0.09
CCATTAAC | 0.181
AGACTCTC | -0.179
GAGTAATA | 0.147
ACATTACT | 0.218
CGAGATTA | -0.0546
AAGAAGCC | 0.0634
TCGTGGAA | -0.0654
ATAGTAGG | 0.171
AGGTTCAA | 0.222
CTTCACAC | 0.262
TGGCACAA | -0.0932
ATAACTGA | 0.0367
GTTGAAAC | 0.111
GGGCGGAC | -0.298
TACCTAAA | 0.319
CTGTGCGC | -0.146
CAGATCAA | 0.0556
CCATCAAA | -0.00588
ATAGCCCC | -0.233
GCCAAGCA | -0.288

Sequence | PBM E-score
AAGCCTTC | 0.00316
CTGGACTC | -0.157
ACGTCAGA | -0.0628
CGGTGAAG | -0.111
GTATCATA | 0.127
AAGACCCA | -0.229
CCTTCCCA | -0.0182
AGTGGGAT | -0.0984
TAATCTAA | 0.0482
GATACGGC | -0.121
CCAGAAGC | -0.229
AAATAACA | 0.239
GCACACGC | 0.125
CTAATACA | 0.248
CCTTTCGC | 0.0484
CGTTGGTC | -0.0905
CGCCCGCG | -0.259
CGGGTACA | 0.026
ACTCCTAT | 0.0818
CACCGTAG | -0.129
AGAAATTG | -0.102
CCATCTCA | -0.228

Sequence | PBM E-score
CAAGTCGC | -0.22
ACGAGCAC | -0.00342
ACCTTCAA | 0.268
ATACGCTC | 0.122
AATTTTAG | 0.004
AGTGCGGC | -0.127
CCATCGCA | -0.127
GGCCTATA | -0.148
CTACTCTC | -0.0743
CACAAACG | 0.182
CCGTGGAC | -0.298
CGGATTAA | -0.107
CGCGTATA | 0.315
GTCCGAAC | -0.0695
AGGGGCAC | -0.0384
ATCTAGCG | -0.0469
CCTTTGGC | 0.0667
CACTAGAA | 0.00654
CGAATTTC | -0.0508
CACCTCCG | -0.205
CGGGATAA | 0.0887
AGTTCAGG | 0.134

Sequence | PBM E-score
AGTGGACA | -0.119
TCCAGCGA | -0.24
AACAACTA | 0.247
GCTAGCCA | -0.136
CACGACTA | 0.0396
CTCTATGC | -0.0578
GTTACCGA | -0.0872
TAGAACAA | 0.182
CACGGGCC | -0.13
CGAGGAGC | -0.049
GCAACTAC | 0.119
GAATTCTA | -0.00099
GTACTCCA | -0.184
GAAGTTCC | -0.0671
AAGTAACC | 0.00035
GCGACAAC | -0.0222
CTGAACCC | -0.0624
CCAACGAA | 0.079
CTATAAAA | 0.203
ATCGTATG | 0.156
GCCTAATA | 0.166
ATGCGTCA | -0.106

Sequence | PBM E-score
TAGACCGA | -0.117
CCTCATTC | -0.101
ATAGCATG | 0.163
GGATAAAA | -0.127
AGACACAC | -0.0248
CCGGCGGC | -0.379
CACGACAC | 0.292
CCACAAGA | -0.184
AGGTGCGC | -0.0403
CGAACCCC | -0.14
ATGTTGTC | 0.214
CACGTAGG | 0.178
ACGTACTG | 0.0554
CCCGGGCG | 0.00646
CTTATTAC | 0.267
ACCGTGCC | 0.336
CGGAATTC | -0.0768
TCAACAGA | 0.00663
CGCAGTGC | -0.126
AGCGAGAA | -0.14
ACGTATCG | 0.169
